The whole screen tested about 48,000 compounds, of which about 550 (1.1%) were called active. Roughly 4% stayed inconclusive and do not appear here. Cut-off read from the data, not from the text of the source: active = potency below about 15 µM; inconclusive = mostly about 16 µM to 33 µM; inactive = weaker than that. Some of the results follow.
Potency is the fitted concentration of half-maximal effect.

This assay has as its target Lysosomal acid glucosylceramidase (Homo sapiens) (UniProt P04062). Put plainly: Glucocerebrosidase.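 Note: the screen sought inhibitors.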 Conditions: purified enzyme, resorufin glucoside fluorescence (screen aimed at inhibitors), 20 min. The method in brief: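 Wild-type enzyme at 0.2 nM final in 50mM citric acid/KH2PO4, 10mM sodium taurocholate, 0.01% tween-20, pH 5.9, with resorufin beta-D-glucopyranoside at 30 uM final. Compounds titrated, 20 min at RT, red fluorescence read; AC50 from titration.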
Chain of UniProt P04062 (P04062 whole entry, looked up): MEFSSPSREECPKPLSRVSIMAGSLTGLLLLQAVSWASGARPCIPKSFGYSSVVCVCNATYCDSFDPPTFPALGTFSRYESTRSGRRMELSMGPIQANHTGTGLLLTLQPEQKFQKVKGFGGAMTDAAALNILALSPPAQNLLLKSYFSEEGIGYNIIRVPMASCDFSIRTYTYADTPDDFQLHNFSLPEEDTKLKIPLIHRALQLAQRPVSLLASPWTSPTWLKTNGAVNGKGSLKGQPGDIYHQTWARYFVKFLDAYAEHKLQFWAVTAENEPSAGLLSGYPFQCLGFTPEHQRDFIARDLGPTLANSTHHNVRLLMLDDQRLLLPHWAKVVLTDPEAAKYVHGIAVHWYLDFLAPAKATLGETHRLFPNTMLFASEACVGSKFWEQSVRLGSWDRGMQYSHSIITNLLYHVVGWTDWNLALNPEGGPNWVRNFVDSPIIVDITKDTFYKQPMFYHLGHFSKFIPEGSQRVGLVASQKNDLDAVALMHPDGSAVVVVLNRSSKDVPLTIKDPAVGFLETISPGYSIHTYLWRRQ
Turning to `CC(C)[C@H](NC(=O)NC1CCCc2ccccc21)C(=O)O` (stereo partly specified), the Potency is inactive: > 76.9 µM.

Regarding `Cn1ncc(C#N)c1NC(=O)c1nn2cccnc2c1Cl`, the Potency was inactive: > 76.9 µM.

With `O=C(CCN1C(=O)COc2ccccc21)NCCC1=CCCCC1`, the Potency is inactive: > 76.9 µM.

Turning to `O=S(=O)(NCc1csc(-c2cccnc2)n1)c1ccc2c(c1)OCCO2`, the Potency is inactive: > 76.9 µM.

For the molecule `O=C(Nc1ccccc1NC(=O)NC1CCCCC1)NC1CCCCC1`, the Potency was inactive: > 76.9 µM.

For `CCCCSc1nnc([C@@H]2CCCN2C(=O)OC(C)(C)C)o1`, the Potency was inactive: > 76.9 µM.

`CCc1cccc(NS(=O)(=O)c2ccc3c(c2)oc(=O)n3C)c1`: the Potency was inactive: > 76.9 µM.

For the molecule `Cn1c(=O)c2c(nc(N3CCOCC3)n2CC(=O)c2ccccc2)n(C)c1=O`, the Potency is inactive: > 76.9 µM.

On to `CCOC(=O)N1CCN(CC(=O)Nc2ccc(C)c(Br)c2)CC1`, for which the Potency was inactive: > 76.9 µM.

For the molecule `O=S1(=O)N=C(N2CCN(Cc3ccccc3)CC2)c2ccccc21`, the Potency was inactive: > 76.9 µM.

For `Nn1cc(-c2ccccc2)nc1SCC(=O)N1CCN(S(=O)(=O)c2ccccc2)CC1`, the Potency is inactive: > 76.9 µM.

On to `NC(=O)CS(=O)(=O)c1nc2ccccc2n1Cc1ccccc1F`, for which the Potency is inactive: > 76.9 µM.

With `O=C1CCCCCN1Sc1ccccc1`, the Potency was inactive: > 76.9 µM.

As to `C/C=C/c1ccc(OCCCCn2cncn2)c(OC)c1`, the Potency is inactive: > 76.9 µM.

For the molecule `NC(=O)c1cccc2c(=O)oc3ccccc3c12`, the Potency was inactive: > 76.9 µM.

For `N#C/C(=C(/O)COC(=O)c1ccc2c(c1)OCCO2)c1nc2ccccc2[nH]1`, the Potency is inactive: > 76.9 µM.

For `Brc1c(OCCOCCn2cncn2)ccc2ccccc12`, the Potency is inactive: > 76.9 µM.

In the case of `Cc1ccccc1NC(=O)N1CCCC(c2nc(-c3ccc(F)cc3)no2)C1` (stereo unspecified), the Potency is inactive: > 76.9 µM.

For the molecule `O=C(CNS(=O)(=O)c1ccc(F)cc1)N1CCN(c2ccccc2)CC1`, the Potency is inactive: > 76.9 µM.

Consider `COc1ccc(NC(=O)CSc2nnc(-c3ccccn3)n2N)cc1`, for which the Potency is inactive: > 76.9 µM.

For the molecule `Cc1ccccc1CS(=O)(=O)Cc1ccc(C(=O)NCCCN2CCCC2=O)o1`, the Potency was inactive: > 76.9 µM.

On to `O=C(c1cccs1)N1CCN(S(=O)(=O)N2CCOCC2)CC1`, for which the Potency was inactive: > 76.9 µM.

For the molecule `CNc1nc(SC)nc(N2CCOCC2)n1`, the Potency was inactive: > 76.9 µM.

`O=C1CSc2ccc(C(=O)N3CCN(c4ccccn4)CC3)cc2N1`: the Potency is inactive: > 76.9 µM.

On to `CC(C)(C)n1ncc2c(=O)n(CC(=O)N3CCc4ccccc43)cnc21`, for which the Potency is inactive: > 76.9 µM.

Turning to `COc1ccc(-c2sccc2C(C)C(=O)O)cc1` (stereo unspecified), the Potency was inactive: > 76.9 µM.

Regarding `COCCNC(=O)Cn1cnc2ccc(S(=O)(=O)N3CCC(C)CC3)cc2c1=O`, the Potency was inactive: > 76.9 µM.

Regarding `CC1CCN(C(=O)CN(c2ccc3c(c2)OCO3)S(C)(=O)=O)CC1`, the Potency was inactive: > 76.9 µM.

On to `CN(C)c1nc(Oc2ccc(N)cc2)nc(N(C)C)n1`, for which the Potency is inactive: > 76.9 µM.

As for `Cc1oc(-c2ccc(F)cc2)cc1-c1nn2c(-c3ccoc3C)nnc2s1`, the Potency was inactive: > 76.9 µM.

In the case of `COC(=O)c1ccc(S(=O)(=O)N2C3CCC2CC(NC(=O)NC2CCCCC2)C3)cc1` (stereo unspecified), the Potency is inactive: > 76.9 µM.

As to `CCOc1cc(C#N)c(NC(=O)c2cccnc2)cc1OCC`, the Potency is inactive: > 76.9 µM.

For the molecule `Cc1nc(NC(=O)c2ccco2)sc1C(=O)Nc1ccc(Br)cc1`, the Potency is inactive: > 76.9 µM.

Turning to `Cn1cc(C(=O)NC2CCCCCC2)c(=O)c2cc(S(=O)(=O)N3CCCC3)ccc21`, the Potency is inactive: > 76.9 µM.

For the molecule `O=C1CC(Nc2ccc(N3CCOCC3)cc2)C(=O)N1C1CCCCC1` (stereo unspecified), the Potency was inactive: > 76.9 µM.

As for `CCn1c(SCC(=O)Nc2nc3c(s2)CCCC3)nnc1-c1ccccc1`, the Potency was inactive: > 76.9 µM.

For `COc1cc(C(=O)NCC(=O)OCC(=O)c2ccc[nH]2)cc(OC)c1OC`, the Potency is inactive: > 76.9 µM.

`COCCCNC(=O)c1c(N)n(-c2ccc3c(c2)OCO3)c2nc3ccccc3nc12`: the Potency was inactive: > 76.9 µM.

For `NS(=O)(=O)c1ccc(CCNC(=O)c2cccnc2)cc1`, the Potency is inactive: > 76.9 µM.

As for `CCN(Cc1ccccc1)C(=O)CSc1nc(C)cc2c1C(=O)OC2`, the Potency was inactive: > 76.9 µM.

As for `O=C1CS/C(=N\c2ccccn2)N1C1CCCCC1`, the Potency is inactive: > 76.9 µM.

For the molecule `O=C(Nc1cccc(C(F)(F)F)c1)C1C2CC3OC(=O)C1C3C2` (stereo unspecified), the Potency was inactive: > 76.9 µM.

On to `O=c1c2cc(Cl)ccc2nc2ccc(N3CCCC3)nn12`, for which the Potency is inactive: > 76.9 µM.

Regarding `O=C(NCCCn1ccnc1)c1cc(-c2ccc3c(c2)OCO3)on1`, the Potency was inactive: > 76.9 µM.

Consider `O=C(NCc1ccco1)c1csc2c1CCCCC2`, for which the Potency was inactive: > 76.9 µM.

In the case of `O=C1NC(=O)C(CC(=O)N(Cc2ccco2)C2(C(=O)NC3CCCCC3)CCCCC2)N1` (stereo unspecified), the Potency was inactive: > 76.9 µM.

In the case of `O=C(NCc1cccnc1)Nc1ccc(F)cc1F`, the Potency is inactive: > 76.9 µM.

Turning to `CC(C)=CCSc1nnc(CCNC(=O)OC(C)(C)C)o1`, the Potency was inactive: > 76.9 µM.

Regarding `O=C(O)Cn1nnnc1SCC(=O)Nc1ccc(OC(F)(F)F)cc1`, the Potency is inactive: > 76.9 µM.

Regarding `CC(C)(C)NC(=O)C(c1ccccc1)N(C(=O)c1ccco1)C1CC1` (stereo unspecified), the Potency was inactive: > 76.9 µM.

With `Cc1ccccc1Nc1nc(N)nc(CSc2nnc3sc4ccccc4n23)n1`, the Potency is inactive: > 76.9 µM.

As to `CC(C)C(c1nnnn1CCc1ccccc1)N1CCN(C(=O)c2ccco2)CC1` (stereo unspecified), the Potency is inactive: > 76.9 µM.

For the molecule `CCCn1c(=O)c(C(=O)Nc2nnc(CC)s2)c(O)c2ccccc21`, the Potency was inactive: > 76.9 µM.

As for `COc1ccccc1Oc1ccc(S(=O)(=O)N2CCCC2)cc1`, the Potency is inactive: > 76.9 µM.

As to `CC(C)(C)OC(=O)N1CCC(C(=O)N2CCC[C@H]2C(=O)O)CC1`, the Potency is inactive: > 76.9 µM.

For `COC(=O)Nc1ccc(S(=O)(=O)N(CCO)CC(F)(F)C(F)F)cc1`, the Potency is inactive: > 76.9 µM.

Take `O=c1cc(-c2ccccc2)nc2nc(-c3ccco3)[nH]n12`: the Potency was inactive: > 76.9 µM.

For the molecule `Cc1nc(N)c(C#N)c(-c2cccnc2)c1C`, the Potency was inactive: > 76.9 µM.

`COc1ccccc1Nc1nc(N)nc(CSc2nnc(C)s2)n1`: the Potency was inactive: > 76.9 µM.

As for `C=CCn1c(COc2ccc(CC)cc2)nnc1SC/C(O)=C(\C#N)c1nc2ccccc2[nH]1`, the Potency was inactive: > 76.9 µM.

As to `COC(=O)c1cn(NC(=O)c2cnccn2)c(=O)c2ccccc12`, the Potency is inactive: > 76.9 µM.

As for `CCOC(=O)c1ccc(S(=O)(=O)N2CCN(CC(=O)NC(=O)NC3CCCCC3)CC2)cc1`, the Potency is inactive: > 76.9 µM.

Regarding `COc1ccc(NC(=O)CSc2nnc(Cc3cccn3C)n2CCc2ccccc2)cc1OC`, the Potency is inactive: > 76.9 µM.

As for `Cc1nc(CN2CCN(C(=O)c3ccc(Br)cc3)CC2)cs1`, the Potency was inactive: > 76.9 µM.

Consider `CCOc1ccc(C(=O)NCc2ccncc2)cc1`, for which the Potency was inactive: > 76.9 µM.

Consider `CSc1nc(O)c(C2OC(=O)c3ccccc32)c(=O)[nH]1` (stereo unspecified), for which the Potency was inactive: > 76.9 µM.

As to `Cc1cc(NC(=O)C2CC=CCC2C(=O)O)no1` (stereo unspecified), the Potency is inactive: > 76.9 µM.

For the molecule `CCN1C(=O)CC(Sc2ccccc2N)C1=O` (stereo unspecified), the Potency was inactive: > 76.9 µM.

Consider `O=C(CSC1=Nc2ccccc2C2=NC(c3ccccc3)C(=O)N12)NCC1CCCO1` (stereo unspecified), for which the Potency is inactive: > 76.9 µM.

As for `COc1ccc(CN2CCN(S(=O)(=O)c3ccc(NC(C)=O)cc3)CC2)cc1OC`, the Potency was inactive: > 76.9 µM.

As for `N#C/C(C(=O)N1CCOCC1)=c1\s/c(=C/c2ccncc2)c(=O)n1-c1ccccc1`, the Potency is inactive: > 76.9 µM.

As to `Fc1ccc(-c2nnc3sc(-c4ccc5c(c4)OCO5)nn23)cc1`, the Potency was inactive: > 76.9 µM.

For the molecule `COC(=O)[C@H](C)NC(=O)Nc1ccccc1F`, the Potency was inactive: > 76.9 µM.

On to `CCOC(=O)C(C)NC(=O)C(NC(=O)C1CCC(CC)CC1)C(C)C` (stereo unspecified), for which the Potency was inactive: > 76.9 µM.

For the molecule `O=C1C2CC=CCC2C(=O)N1CC(=O)N(Cc1ccccc1)C1CCS(=O)(=O)C1` (stereo unspecified), the Potency was inactive: > 76.9 µM.

`Cc1ccc(NC(=O)C2CC(=O)NC(N3CCCCC3)=N2)cc1Cl` (stereo unspecified): the Potency is inactive: > 76.9 µM.

As for `O=c1c2[nH]c3ccc(Br)cc3c2ncn1CCCn1ccnc1`, the Potency is inactive: > 76.9 µM.

Take `O=S(=O)(Nc1ccccn1)c1ccc(C2CCCCC2)cc1`: the Potency was inactive: > 76.9 µM.

In the case of `CC(=O)Nc1ccc(S(=O)(=O)N2CCN(S(=O)(=O)N3CCCCCC3)CC2)cc1`, the Potency was inactive: > 76.9 µM.

Consider `CCN(CC)c1ccc(CNc2ccc(Br)cn2)cc1`, for which the Potency was inactive: > 76.9 µM.

`CC1=C(SCCC#N)S/C(=C2\SC(C)=C(SCCC#N)S2)S1`: the Potency was inactive: > 76.9 µM.

For the molecule `Cc1nn(CC(=O)NC(C)c2ccccc2)c(=O)c2ccccc12` (stereo unspecified), the Potency was inactive: > 76.9 µM.

For the molecule `CCc1nnc(NC(=O)CCN2C(=O)c3ccccc3S2(=O)=O)s1`, the Potency was inactive: > 76.9 µM.

On to `N#CC1=C(N)SC(N)=C(C#N)C1c1ccoc1`, for which the Potency is inactive: > 76.9 µM.

For `c1ccc2sc(N3CN(CCN4CCOCC4)CN(c4nc5ccccc5s4)C3)nc2c1`, the Potency result is “inactive”.

As for `CCCn1c(SCC(=O)Nc2nnc(CC)s2)nnc1-c1ccco1`, the Potency is inactive: > 76.9 µM.

Take `CCCc1nc(-c2ccccc2O)n(-c2ccccc2)n1`: the Potency is inactive: > 76.9 µM.

As to `CC(=O)N1c2ccccc2C(=O)C1N1CCCCC1` (stereo unspecified), the Potency is inactive: > 76.9 µM.

On to `COc1cccc(-c2cc(C(=O)N3CCN(C(c4ccccc4)c4ccccc4)CC3)no2)c1`, for which the Potency was inactive: > 76.9 µM.

Turning to `O=C(NCCc1ccccc1)c1ccnc(/C=N/O)c1`, the Potency is inactive: > 76.9 µM.

For the molecule `c1nc(N2CCOCC2)c2sc3nc(N4CCOCC4)c4c(c3c2n1)CCCC4`, the Potency is inactive: > 76.9 µM.

The values are drawn from PubChem BioAssay AID360 (National Center for Advancing Translational Sciences (NCATS), 2006).
